Data taken from the supplement of paper PMC10338343.
± gives the standard deviation. The list shows a part of the results, in another mix than the full data.

System: MIWI (PIWIL1) piRISC loaded with L1MC piRNA (30 nt)
Experiment: pre-steady-state target cleavage rate (min^-1); MIWI and MILI are mouse PIWI proteins and EfPiwi is from a freshwater sponge; tags in brackets are library labels; higher = faster piRNA-guided slicing of the target
Conditions: guide: L1MC piRNA 5'p-UAACUAAAUACUAUGCAAGCUGUAGGUCCU
Outline: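 In HEPES–potassium acetate buffer at 33 °C, […] transcribed, DNA-blocked target RNA library was mixed with 1 nM active affinity-purified piRISC carrying one synthetic guide, with or without 500 nM GTSF1 partner protein, for 0–8 or 0–960 min. Uncleaved targets were sequenced and normalised to depth and to weakly complementary targets; three trials were pooled and k3 was capped at 0.0001 min^-1. The pre-steady-state cleavage rate followed from a burst-and-steady-state fit.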

[1] = auxiliary factor: 500 nM mouse GTSF1
[2] = auxiliary factor: none (no GTSF1)
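Further: 1 nM active piRISC with 0.1 nM target library at 33 °C single turnover.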

Sequence	pre-steady-state target cleavage rate [1]	pre-steady-state target cleavage rate [2]
UCGAGCUACAGCUUGCAUAGUAUUUAGUUA	1.41 ± 0.062	0.0832 ± 0.014
UCCUCCUACACCUUGCAUAGUAUUUUGUUA	0.425 ± 0.07	0.0173 ± 0.0025
UCGACCUACAGCUUGCAUAGUAUGUUAGUUA	0.566 ± 0.031	0.0175 ± 0.0044
AGGACCUACAGCUUGCAUAGUAUAUAGAAA	0.394 ± 0.067	0.00411 ± 0.0035
UCCUGGUUGAGCUUGCAUAGUAUUUUCAAA	0.0288 ± 0.011	0.0031 ± 0.0029
UCCACCUACAGCUUGCAUAGUAUUUUAGUUA	0.779 ± 0.056	0.0197 ± 0.0047
UCCUGGAACAGCUUGGAUUGUAUUUAGUUA	0.113 ± 0.011	0.00963 ± 0.003
UCCUGGAACAGCUUGCAUAGUAAAUAGUUA	0.36 ± 0.035	0.00869 ± 0.0044
UGGACCAUCAGCUUGCAUAGUAUUUACAAA	0.264 ± 0.032	0.00628 ± 0.0023
UCCUGGAACAGCUUGGAAAGUAUUUAGUUA	0.68 ± 0.027	0.00543 ± 0.0022
UCCUGGAUCACGCUUGCAUAGUAUUUAGUUA	0.994 ± 0.044	0.0429 ± 0.0086
UCGACCUACAGCUAGCAUAGUAUUUAGUAA	0.932 ± 0.058	0.00995 ± 0.0034
UCCUCCUACUCCUUGCAUAGUAUUUAGUAA	0.39 ± 0.028	0.0149 ± 0.0024
UCCUGGAACAGCUUGCAUUGUUUUUAGUUA	0.0622 ± 0.009	0.00871 ± 0.0034
UCCUGCUUGAGCUUGCAUAGUAUUUAGUUA	0.707 ± 0.051	0.0427 ± 0.0082
UCCUGGAACAGCUUGCAUAGUUUUUUGUUA	0.197 ± 0.025	0.0238 ± 0.0057
UCCUGGAUGUCCUUGCAUAGUAUUUAGUGUA	0.0232 ± 0.0073	0.00487 ± 0.0027
UGGACCAUGAGCUUGCAUAGUAUUUAGUUA	0.994 ± 0.067	0.0437 ± 0.0085
UCCUGGUUGAGCUUGCAUAGUAUUUAGAAA	0.135 ± 0.024	0.00555 ± 0.0033
UCGACCUUCAGCUUGCAUAGUAAUUAGUUA	0.939 ± 0.044	0.0332 ± 0.0081

Sequence	pre-steady-state target cleavage rate [1]	pre-steady-state target cleavage rate [2]
UCCUGGUACAGCUGCAUAGUAUUUAGUUA	0.582 ± 0.035	0.00774 ± 0.0038
UCCUGGAUGUCGUUGCAUAGUAUUUAGUUA [g2:g18:cont:t1A]	0.0403 ± 0.0073	0.00451 ± 0.0025
UCGACCUACAGCUUGCAUAGUAUUUAGUCUA	0.165 ± 0.024	0.0179 ± 0.0043
UCCUGCUACAGCUUGGAUACUAUUUAGUUA	0.339 ± 0.037	0.02 ± 0.004
UCGACCUACUGCUUGCAUAGUUUUUAGUUA	0.394 ± 0.017	0.0293 ± 0.0054
UCCUGGAUGAGCUUGCAUAGUAGUUUAGUUA	0.102 ± 0.015	0.00894 ± 0.0031
UCCUGGAUGUGCUUGCAUAGUAUGUAGUUA	0.106 ± 0.017	0.027 ± 0.0064
UCCACCUUCAGCUUGCAUAGUAUUUAGUAA	0.628 ± 0.038	0.0237 ± 0.0045
AGGACCUACAGCUUGCAUUGAAUUUAGUUA	0.287 ± 0.025	0.012 ± 0.004
UCCUGGUACAGCUUGCAUUGUAUUAAGUUA	0.0832 ± 0.018	0.00901 ± 0.0038
UCCACGUACAGCUUGCAUAGUAUUUAGAUA	0.33 ± 0.025	0.0188 ± 0.0033
UCCUGGAUCAGCUUCGCAUAGUAUUUAGUUA	0.783 ± 0.049	0.0119 ± 0.0036
UCGACGUACAGCUUCCAUAGUAUUUAGUUA	0.0527 ± 0.011	0.00418 ± 0.0013
AUGGACCUACAGCUUGCAUAGUAUUUAGUUA	1.34 ± 0.088	0.0872 ± 0.018
UGGACCUACAGCUUGCAUAGUAUUCAGUUA	0.544 ± 0.042	0.0354 ± 0.0065
ACGACCUACAGCUUGCAUAGUAAUUAGUUA	1.02 ± 0.036	0.035 ± 0.0076
UGGACCUACUGCUUGCAUAGUAUUUACAAA	0.0849 ± 0.014	0.00793 ± 0.0024
UCCUGCUACAGCUUGCAUACUAAUUAGUUA	0.2 ± 0.019	0.00907 ± 0.0022
UCCUGGAUGUGCUUGCAUACUAUUUACUUA	0.0599 ± 0.014	0.00974 ± 0.0027
UGGACCUACAGCUUGCUUAGUAUUUACAAA	0.195 ± 0.035	0.00309 ± 0.0018

Sequence	pre-steady-state target cleavage rate [1]	pre-steady-state target cleavage rate [2]
UCCACCUACAGCUUGCUUAGUUUUUAGUUA	0.175 ± 0.017	0.0103 ± 0.002
UGGACCUACAGCUUGGAUUGUAUUUAGUUA	0.704 ± 0.035	0.0134 ± 0.0038
UCCUGGAUCAGCUUGCAUAGUAUUUAGUCUA	0.118 ± 0.019	0.00898 ± 0.0019
UCCUGCUACAGCAAGCAUAGUAUUUAGUUA	1.17 ± 0.11	0.00323 ± 0.0021
UGGACCUACAGCUUGCAUAGUUUUUAGUAA	0.269 ± 0.018	0.0187 ± 0.0056
AGGACCUACACCUUGCAUAGUAUUUACUUA	0.381 ± 0.057	0.0485 ± 0.0091
UCCUGAUACAGCUUGCAUAGUAUUUAGUUA	1.15 ± 0.046	0.0816 ± 0.017
UCCUGCUACAGCUUGCAUAGUCUUUAGUUA	0.279 ± 0.034	0.0195 ± 0.0047
UCCUGGUACAGCUUGCAUAGUAUUAAGUAA	0.284 ± 0.059	0.00479 ± 0.0028
UCCUCCUACACCUUGCAUUGUAUUUAGUUA	0.612 ± 0.035	0.0239 ± 0.0046
UCCUCCUACAGCUUGCAAAGUAUUUAGUUA	1.14 ± 0.039	0.0317 ± 0.0066
UCCUCCUACAGCUUGCAUAGUAUUUAGUUU [g2:g26:cont:t1U]	1.29 ± 0.04	0.0826 ± 0.02
UCCUGGUACAGCUUGCAUAGUAUUAUAGUUA	0.698 ± 0.085	0.0149 ± 0.0038
UCCUGGAUGAGCUUGCAUACUAUUUAGAAA	0.0176 ± 0.007	0.00369 ± 0.0034
UCCUGCUACAGCUAGCAUAGUAUUUACUUA	0.621 ± 0.083	0.0072 ± 0.0023
UCGACCUACAGCUUGCAUAGUAUUUAGCUA	0.0909 ± 0.023	0.00811 ± 0.0027
UCCUGGUACUGCUUGCAUAGUAUUAAGUUA	0.186 ± 0.046	0.0113 ± 0.0027
UGGAGCUACUGCUUGCAUAGUAUUUAGUUA	1.09 ± 0.055	0.0621 ± 0.0085
UCCUGGAUGAGCUUGCAUUCUAUUUAGUUA	0.0299 ± 0.0055	0.00511 ± 0.0033
UCGACCUAGAGCUUGCAUAGUAAUUAGUUA	0.759 ± 0.052	0.0164 ± 0.0037
